Results published in PubChem BioAssay AID2147 (National Center for Advancing Translational Sciences (NCATS), 2009).
In all, about 230,000 compounds went through this assay and about 3,600 (1.6%) were called active. This list was built around the results that the source calls inconclusive (neither active nor inactive); the mix of calls is not that of the screen. Calls follow the shape of the dose curve; as a rule, active = well fitted inhibition curve with a large enough effect (not every such curve was filed as active); inconclusive = small, poorly fitted or top-dose-only effect, or another doubt; inactive = no such curve, though single readings can be large or run the other way. Potencies beside an inconclusive call are fits to weak or partial responses and may not hold up.

The molecules below were run against Lysine-specific demethylase 4E (Homo sapiens) (UniProt B2RXH2) (assay: qHTS Assay for Inhibitors of Human Jumonji Domain Containing 2E (JMJD2E)). Conditions: JMJD2E catalytic domain, FDH-coupled NADH fluorescence (FDH is formaldehyde dehydrogenase); series mostly up to 57.1 µM.
UniProt B2RXH2, sequence (B2RXH2 whole entry, looked up, the tested form may be a part): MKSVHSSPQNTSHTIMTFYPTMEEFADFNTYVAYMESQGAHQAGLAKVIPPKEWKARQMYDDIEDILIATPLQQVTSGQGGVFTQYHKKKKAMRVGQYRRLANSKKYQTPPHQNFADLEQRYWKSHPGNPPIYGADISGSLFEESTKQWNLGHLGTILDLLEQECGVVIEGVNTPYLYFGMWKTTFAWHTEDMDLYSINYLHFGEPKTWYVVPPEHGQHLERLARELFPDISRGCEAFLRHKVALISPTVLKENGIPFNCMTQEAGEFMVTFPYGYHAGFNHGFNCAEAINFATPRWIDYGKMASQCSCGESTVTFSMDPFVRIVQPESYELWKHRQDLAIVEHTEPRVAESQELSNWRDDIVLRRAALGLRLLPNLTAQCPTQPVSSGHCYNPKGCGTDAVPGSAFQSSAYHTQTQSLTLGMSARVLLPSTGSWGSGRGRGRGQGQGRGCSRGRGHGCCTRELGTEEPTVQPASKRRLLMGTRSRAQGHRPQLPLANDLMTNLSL
Also: nearly all actives have a fitted effect of over 50% in size.
Potency is read from the fitted curve at half-maximal effect; tags tell the direction and shape of the fitted curve.

Compound	Potency
Cc1cccc(CNc2ncnc3ccc(-c4ccccc4C#N)cc23)c1	inconclusive: 20 µM [inhibitor, partial curve]
CC(=O)c1ccc(N2Cc3ccccc3/C2=N\C(=O)Nc2ccc(Cl)cc2)cc1	inconclusive: 25.1 µM [inhibitor, single point]
CC1CC(C)CN(CC(C)(C)NS(=O)(=O)c2ccccc2)C1 (centres undefined)	inconclusive: 39.8 µM [inhibitor, single point]
CCN(C(=O)c1cccs1)c1nc(-c2ccc(OC)cc2)cs1	inconclusive: 39.8 µM [inhibitor, single point]
CCOC(=O)CSC1=C(C#N)C(c2sccc2C)C(C(C)=O)=C(C)N1 (centres undefined)	inactive
COc1ccccc1NC(=O)CSc1nnc(COc2ccc(Cl)cc2)n1Cc1ccco1	inconclusive: 31.6 µM [inhibitor, single point]
CSc1ccc(-c2c(C#N)c(N)nc3c2CCCC3)cc1	inconclusive: 3.55 µM [inhibitor, single point]
CCCCOc1ccc(-c2c(C#N)c(N)nc(SCC(N)=O)c2C#N)cc1	inconclusive: 39.8 µM [inhibitor, single point]
CCN(CC)CCCCn1c(-c2ccccc2)nc2c(N(CCOC)CCOC)nc(C)nc21	inconclusive: 28.2 µM [inhibitor, partial curve]
Cc1cc2c(c(=O)o1)C(c1ccc([N+](=O)[O-])o1)C(C#N)=C(N)O2 (centres undefined)	inconclusive: 1.58 µM [inhibitor, partial curve]
CN(C)c1cccc(C(=O)OCc2cc(=O)oc3cc(O)ccc23)c1	inconclusive: 25.1 µM [inhibitor, partial curve]
COC(=O)Cc1cc(=O)n2[nH]c(C)cc2n1	inconclusive: 22.4 µM [inhibitor, partial curve]
CNC(=O)c1sc2nc(-c3ccc(OC)cc3)cn2c1C	inconclusive: 39.8 µM [inhibitor, single point]
Cc1ccc(-c2cccc(CN3CCN(C(C)C)C(CCO)C3)c2)o1 (centres undefined)	inconclusive: 12.6 µM [inhibitor, partial curve]
Nc1c(C(=O)NCc2ccc(F)cc2)c2nc3ccccc3nc2n1CCCN1CCOCC1	inconclusive: 28.2 µM [inhibitor, partial curve]
CCCCn1c(=O)nc2n(-c3ccccc3C)c3ccccc3cc-2c1=O	inconclusive: 31.6 µM [inhibitor, partial curve]
CS(=O)(=O)N(CC(=O)NCc1ccco1)Cc1ccc(Cl)cc1	inactive
Cc1ccc2[nH]c(=O)cc(C(=O)OC(C)C)c2c1	inconclusive: 0.0398 µM [inhibitor, full curve, poor fit]
O=C(c1cc([N+](=O)[O-])ccc1N1CCOCC1)N1CCOCC1	inactive
O=C1NC(c2cc3c(cc2Cl)OCO3)Oc2ccccc21 (centres undefined)	inconclusive: 20 µM [inhibitor, partial curve]
CCCCCCNC(=O)C(C#N)c1nc2ccccc2nc1N1CCCC1 (centres undefined)	inconclusive: 20 µM [inhibitor, partial curve]
COc1ccc(-c2ccc(CCC(=O)O)o2)cc1	inconclusive: 31.6 µM [inhibitor, partial curve]
CCOC(=O)COc1nc(-c2ccc(Cl)cc2)cc(-c2ccco2)c1C#N	inconclusive: 3.16 µM [inhibitor, full curve]

Compound	Potency
COc1ccc(NC(=O)Cn2cnc3c(cnn3C(C)(C)C)c2=O)cc1OC	inactive
Cc1ccc(-n2c3c(cc(C(=O)NC4CCSC4=O)c2=O)C(=O)CC(C)(C)C3)cc1 (centres undefined)	inconclusive: 25.1 µM [inhibitor, partial curve]
COc1ccc(-c2csc(NC(=O)c3ccc(N4C(=O)CCC4=O)cc3)n2)cc1OC	inconclusive: 35.5 µM [inhibitor, single point]
COc1ccc2oc(=O)c(-c3csc(Nc4cccc(O)c4)n3)cc2c1	inconclusive: 28.2 µM [inhibitor, single point]
COc1cc(C2C(C#N)=C(N)N(Nc3ccccc3)C3=C2C(=O)CC(C)(C)C3)ccc1OCc1cccc(F)c1 (centres undefined)	inconclusive: 3.16 µM [inhibitor, full curve]
CCOC(=O)Cc1csc(N/N=C\c2cccc(Br)c2)n1	inactive
CNc1nc(-c2ccc3c(c2)CCN3C(=O)CC(C)(C)C)c(C)s1	inactive
O=c1c2c3c(sc2n2cnnc2n1Cc1ccccc1)CN(Cc1ccccc1)CC3	inconclusive: 28.2 µM [inhibitor, single point]
CCOC(=O)C1CCN(Cc2c(O)ccc3ccccc23)CC1	inconclusive: 31.6 µM [inhibitor, partial curve]
NC(=O)C1CCCN(S(=O)(=O)c2ccc(Br)cc2)C1 (centres undefined)	inactive
O=C(CNC(=O)c1cccs1)OCC(=O)c1ccc2ccccc2c1	inconclusive: 31.6 µM [inhibitor, single point]
O=c1[nH]c(=O)c2nnc(N/N=C\c3ccc(O)cc3)nc2[nH]1	inactive
O=C(Oc1ccc2c(-c3ccccc3)cc(=O)oc2c1)C1CCCCC1	inconclusive: 28.2 µM [inhibitor, single point]
CNCc1ccccc1Sc1ccc(O)c(O)c1	active: 14.1 µM
Cc1ccc(-c2c(C#N)c(N)n(-c3ccc(C)cc3)c(=O)c2C#N)cc1	inconclusive: 35.5 µM [inhibitor, single point]
CCN(CC)S(=O)(=O)c1cccc(C(=O)/C=C2/N(C)c3ccccc3C2(C)C)c1	inconclusive: 39.8 µM [inhibitor, single point]
Cc1ccc(-n2c(C)cc(/C=N\NC(=O)CC(=O)NC(C)C)c2C)cc1	inconclusive: 39.8 µM [inhibitor, single point]
CCCCn1c(SCC(=O)c2ccccc2)nc2ccsc2c1=O	inactive
Cc1ccc(Oc2ccccc2/C=C2\SC(=O)N(C)C2=O)cc1	inconclusive: 39.8 µM [inhibitor, single point]
CCN(CC(=O)Nc1ccc2c(c1)OCCO2)Cc1cc(=O)n2ccsc2n1	inconclusive: 31.6 µM [inhibitor, partial curve]
O=C(Nc1ccc2oc(-c3cccc(F)c3)nc2c1)c1ccccc1F	inconclusive: 25.1 µM [inhibitor, partial curve]
O=C(CCn1nc(-c2ccccc2)ccc1=O)N1CCCC1	inconclusive: 35.5 µM [inhibitor, single point]
CCCCn1c(Cc2ccccc2)n[nH]c1=S	inactive

Compound	Potency
COc1ccc(CCN2C(=NC(C)=O)SC3CS(=O)(=O)CC32)cc1OC (centres undefined)	inactive
CCOc1nc(-c2ccc(C)cc2)ccc1-c1noc(COC)n1	inconclusive: 35.5 µM [inhibitor, partial curve]
Oc1ccc(N2CCN(Cc3ccc(OCCCN4CCCCC4)cc3)CC2)cc1	inactive
CCCOc1ccc2c3c(c(=O)oc2c1OCCC)CCCC3	inconclusive: 25.1 µM [inhibitor, single point]
COc1cc2c(cc1NCc1ccccn1)oc1ccccc12	inconclusive: 31.6 µM [inhibitor, partial curve]
CCOc1ccc2nc(SCC(=O)Nc3ccc(S(=O)(=O)N4CCCC4)cc3)c(C)cc2c1	inconclusive: 28.2 µM [inhibitor, single point]
CC(C)CC(NC(=O)C(CO)NC(=O)C1CCC(=O)N1)C(N)=O (centres undefined)	inactive
COc1ccc(N2CCN(C(=O)c3ccc(CS(=O)(=O)c4ccc(OC)cc4)o3)CC2)cc1	inactive
Cc1cc(=O)oc2cc(OCC#N)ccc12	inconclusive: 14.1 µM [inhibitor, partial curve]
CCOC(=O)CSc1nnc(NC(=O)c2cccc(S(=O)(=O)N3CCCCCC3)c2)s1	inconclusive: 35.5 µM [inhibitor, single point]
COc1cc(/C=C2\COC/C(=C\c3ccc(O)c(OC)c3)C2=O)ccc1O	inactive
Cc1cccc(C(C)(C)C)c1OCCOCCN1CCCC1	inconclusive: 28.2 µM [inhibitor, single point]
COc1ccc2ccccc2c1-c1c(OC)ccc2ccccc12	inactive
O=C(CCCN1C(=O)c2cccc3cccc(c23)C1=O)NCc1ccco1	inconclusive: 14.1 µM [inhibitor, partial curve]
COc1cccc(/C=C2/CN(C)CC3=C2OC(N)=C(C#N)C3c2cccc(OC)c2)c1 (centres undefined)	inconclusive: 39.8 µM [inhibitor, single point]
COc1cccc(/C=N/n2c(-c3n[nH]c4c3CCC4)n[nH]c2=S)c1OC	inconclusive: 39.8 µM [inhibitor, single point]
Cc1c(-c2cc(C(=O)O)c3ccccc3n2)cnn1C	inconclusive: 31.6 µM [inhibitor, partial curve]
CCCCN(C)C(=O)C1CCN(Cc2ccc(OCc3ccccc3)cc2)CC1	inconclusive: 28.2 µM [inhibitor, single point]
Cc1cc2cc3c(=O)[nH]c(=O)[nH]c3nc2cc1C	inconclusive: 4.47 µM [inhibitor, partial curve]
Cc1cc(C)n(C(=O)CNC(=O)COc2ccccc2)n1	inactive
O=C(Nc1ccc2c(c1)CCC2)c1cccc(S(=O)(=O)N2CCN(c3ccccc3)CC2)c1	inconclusive: 0.0071 µM [inhibitor, full curve, poor fit]
Cc1ccc(N2C(N)=C(C#N)C(c3cccnc3)C3=C2CCCC3=O)cc1 (centres undefined)	inconclusive: 39.8 µM [inhibitor, single point]
c1ccc(-c2nc3c4ccccc4ccn3c2CN2CCOCC2)cc1	inconclusive: 28.2 µM [inhibitor, single point]
